In PMC2782911 (Cancer, 2009):

Tested on: histone H4-Lys[16] acetylation
Experiment: Western blot of acetylation status of histone H4-Lys16 in MCF7 cells
Settings: SLC5A8-expressing MCF7 cells cultured with compound (1 mM)

SMILES | acetylation status of histone H4-Lys[16]
CC(=O)C(=O)O [pyruvate] | increased
O=C(O)C(=O)CBr [3-bromopyruvate] | increased
